Source: the supplement of paper PMC3334620
Whole data set: some 33,000 sequences, median “E-score (-0.5 to 0.5)” near -0.035, cut for the highest 2% near 0.35. The list shows a part of the results.

biological target: T1, Pdr3 (UniProt P33200); test: PBM E-score (8-mer binding enrichment) (E-score (-0.5 to 0.5)); higher = stronger / more preferred TF binding; most listed sequences are background and not binding sites; details: protein concentration: 200 nM; construct: GST-full length
T1 sequence: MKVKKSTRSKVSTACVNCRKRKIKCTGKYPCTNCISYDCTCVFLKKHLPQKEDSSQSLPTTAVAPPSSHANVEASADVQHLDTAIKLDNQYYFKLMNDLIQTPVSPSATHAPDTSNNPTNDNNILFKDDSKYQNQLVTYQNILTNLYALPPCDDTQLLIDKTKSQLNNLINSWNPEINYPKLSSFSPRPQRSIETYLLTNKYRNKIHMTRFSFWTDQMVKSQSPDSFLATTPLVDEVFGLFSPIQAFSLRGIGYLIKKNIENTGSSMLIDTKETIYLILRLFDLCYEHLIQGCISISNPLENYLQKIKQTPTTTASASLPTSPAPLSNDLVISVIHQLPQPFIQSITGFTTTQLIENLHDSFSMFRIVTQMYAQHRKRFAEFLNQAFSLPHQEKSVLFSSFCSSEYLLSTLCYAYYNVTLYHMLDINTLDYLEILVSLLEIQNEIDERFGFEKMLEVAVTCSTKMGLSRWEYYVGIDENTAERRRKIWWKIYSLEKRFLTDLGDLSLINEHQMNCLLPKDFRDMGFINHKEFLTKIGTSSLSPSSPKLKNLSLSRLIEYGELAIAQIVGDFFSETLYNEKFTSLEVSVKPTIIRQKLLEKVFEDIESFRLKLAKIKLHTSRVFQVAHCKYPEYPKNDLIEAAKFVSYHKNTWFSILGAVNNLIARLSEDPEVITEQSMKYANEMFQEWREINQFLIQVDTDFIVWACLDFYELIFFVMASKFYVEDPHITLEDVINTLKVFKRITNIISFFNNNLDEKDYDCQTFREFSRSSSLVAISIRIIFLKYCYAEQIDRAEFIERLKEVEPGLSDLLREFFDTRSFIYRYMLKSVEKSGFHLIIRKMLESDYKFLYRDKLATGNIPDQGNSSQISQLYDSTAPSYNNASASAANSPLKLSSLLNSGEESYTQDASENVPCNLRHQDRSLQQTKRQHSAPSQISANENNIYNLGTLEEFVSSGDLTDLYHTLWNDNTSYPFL
Outline: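 GST-tagged yeast TFs (full-length or DNA-binding domain) were made by PURExpress in vitro transcription/translation and applied at about 100-200 nM to universal all-10-mer Agilent arrays. The arrays were made double-stranded by primer extension, on fresh or once-stripped slides. Bound protein was detected with fluorescent anti-GST, and scans were normalised with masliner. Each ungapped eight-base word, pooled with its reverse complement, received an E-score (modified Wilcoxon-Mann-Whitney statistic) from the Universal PBM Analysis Suite.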

| Sequence | PBM E-score |
| --- | --- |
| AGCTACTA | -0.00606 |
| GACTTATC | -0.0395 |
| CACTTGAC | -0.156 |
| AGACCCAC | 0.0644 |
| ATTTTAGA | -0.0538 |
| GGTCCAAA | -0.0766 |
| CAGACTTC | -0.196 |
| GCAGACAA | 0.0426 |
| AGCACGCC | 0.0709 |
| AGGAGGTA | -0.18 |
| AGAGAGAT | -5e-05 |
| CCGCTTCA | 0.0778 |
| ATGGGTTA | 0.0293 |
| GGCCCGAA | 0.184 |
| GATCGGGC | 0.142 |
| CCACGAGC | 0.0663 |
| ACTTTTAA | -0.117 |
| AGTTTCCC | 0.0499 |
| CGCGAAGA | 0.233 |
| AGATATGG | 0.0512 |
| AAAGCCAA | -0.081 |
| CCTGTAAA | -0.33 |
| CCCTGAAA | -0.0909 |
| AGGAACGA | -0.1 |
| CCGACTGC | 0.158 |

| Sequence | PBM E-score |
| --- | --- |
| ACTCAGCT | -0.101 |
| ATCTGCAA | -0.209 |
| ACTCTCGC | -0.145 |
| ACTGCGGA | 0.3 |
| ACCGCGCT | 0.139 |
| CTTGGTAA | -0.183 |
| CGGTTGGC | 0.161 |
| GGCAGAAC | 0.123 |
| GAATCGTC | 0.0399 |
| ATATTACA | 0.102 |
| AATATAAA | 0.172 |
| AGTCTAGC | -0.15 |
| GACATCCC | 0.3 |
| ATCTTTGG | -0.102 |
| GATCCTAA | -0.233 |
| CCAGAGGG | -0.0841 |
| CTCAACAA | 0.00216 |
| ATTCGAGG | -0.213 |
| AACCATGG | 0.146 |
| AGCCACGG | 0.16 |
| ATGGTAAT | -0.0621 |
| AGATCGTA | -0.304 |
| CGTACCAG | -0.0819 |
| AGCCGTCA | 0.131 |
| TTGGACAA | -0.0877 |

| Sequence | PBM E-score |
| --- | --- |
| ATGTACAT | -0.0148 |
| GCGCTTGA | 0.133 |
| ACTGAAGG | -0.0847 |
| AAACCTGA | -0.0373 |
| ACGCACGC | 0.216 |
| CGTAGCCA | -0.267 |
| CAGTGCAG | -0.137 |
| CTAGGTGA | -0.379 |
| AAAGACTC | -0.222 |
| ATATTAGA | -0.0652 |
| GTGTTAAA | -0.19 |
| CCATGCCG | 0.233 |
| GGCAGGTA | 0.0293 |
| CCAAGGTA | -0.119 |
| ACCGGCTA | 0.0457 |
| GCTTGACC | -0.0618 |
| GGAAGCGA | 0.224 |
| AAGGATAA | -0.235 |
| AAAGGAGA | -0.233 |
| AGAAACGC | -0.183 |
| ATGTCCGG | 0.375 |
| GTCTTCCA | -0.258 |
| ACATAATG | 0.0289 |
| ATAATTAC | 0.0827 |
| ACGATAAT | -0.171 |

| Sequence | PBM E-score |
| --- | --- |
| ATCCGCAG | 0.316 |
| CGCTATAG | -0.245 |
| GCACGTAA | -0.144 |
| ACAACTAC | 0.0153 |
| GTAGTAAA | -0.0238 |
| GTCTTCAC | -0.181 |
| GGGGCCTA | -0.244 |
| CTATCAAG | -0.175 |
| AGATATAC | -0.0791 |
| AATGGAGG | 0.0106 |
| ACAGGAGG | -0.213 |
| GCGACGGA | 0.374 |
| ATAGAGCC | -0.0296 |
| AAGGACAG | 0.0667 |
| GTTAGGTA | -0.0109 |
| ATATCGTA | 0.00561 |
| CTGCGAAC | -0.337 |
| ACGACCAG | -0.0994 |
| TGTATTAA | -0.0783 |
| ACCTCTAA | -0.154 |
| AGGCTGGG | -0.288 |
| AATACATG | 0.0526 |
| CGATATTC | 0.238 |
| ACGCGCGC | 0.238 |
| AAACCCCA | -0.161 |

| Sequence | PBM E-score |
| --- | --- |
| CTATCAGA | -0.12 |
| CTGTGGTC | -0.0567 |
| AGCATTAA | -0.0268 |
| GCAAGAGA | -0.0933 |
| GCTCGTAC | -0.126 |
| GGCGGTTA | 0.0539 |
| ACCGATTC | -0.0118 |
| GAATCATC | 0.0501 |
| CATCTGAA | -0.0255 |
| AGTCAGGC | 0.0885 |
| CGTCGTCA | 0.0586 |
| TCGAACCA | -0.0908 |
| CTGTGATA | -0.18 |
| ATCCGAAT | 0.365 |
| ATAGACTG | -0.188 |
| CGAAACTC | -0.0674 |
| CCGGAACG | 0.475 |
| AAGGATCT | -0.357 |
| AGCAGGAA | -0.0425 |
| GAGGGTCC | 0.0853 |
| AACTCATG | -0.103 |
| AATTGCAG | 0.0317 |
| ACGGCACG | 0.235 |
| CGTATGTA | -0.148 |
| TACTCACA | -0.152 |

| Sequence | PBM E-score |
| --- | --- |
| CGAGCGAA | 0.11 |
| CGTCGTAG | 0.0191 |
| TTGCCCAA | -0.0756 |
| GTCGAGAC | 0.101 |
| CCTTGACC | 0.0672 |
| GGCGAGAA | 0.0367 |
| AGTCCGTG | 0.193 |
| CTGAACTA | -0.16 |
| CCTACCTA | -0.29 |
| AAAGCCGA | -0.0155 |
| CAGAGCCC | -0.0899 |
| CCGTGGGA | 0.191 |
| CATGATCC | 0.143 |
| GCGCCGAA | 0.241 |
| ACCCAGCC | -0.185 |
| GGCGGTCA | 0.0167 |
| TAGTTAAA | -0.0289 |
| CATTCTCG | 0.0449 |
| CCATGGGC | 0.0496 |
| GCCGACCC | 0.115 |
| ACTGTTGC | 0.0396 |
| GAGTCAAA | -0.046 |
| AGCTAAGA | -0.166 |
| ACGTCATC | -0.16 |
| CGCCCATA | 0.124 |

| Sequence | PBM E-score |
| --- | --- |
| TAGTCAGA | -0.168 |
| GCCGTGTA | 0.0838 |
| ATTGATAC | 0.182 |
| CACATAAA | -0.0348 |
| GGTGTGAC | -0.223 |
| CAACACTC | 0.149 |
| AAATCTCA | -0.0725 |
| TGACCGCA | 0.0167 |
| CAGAATAC | 0.0339 |
| CTCGAAGA | -0.0785 |
| ATCTAGAC | -0.144 |
| GTCTGAGA | -0.189 |
| GACTTCCA | -0.0818 |
| CATCTCAA | -0.163 |
| AGCAAATC | 0.0544 |
| GGAGAGGA | -0.0401 |
| AGGGTCAC | -0.27 |
| CCAATCCG | 0.318 |
| GAGGGTTA | -0.131 |
| TAAATGTA | -0.102 |
| CCCCGCAC | 0.138 |
| AATGTAAC | -0.00273 |
